{"source": "PubChem BioAssay AID330", "about": "(DTP/NCI, 2004)", "tested_on": "P388 leukemia ip, CD2F1 mice, survival T/C", "assay": "NCI In Vivo Anticancer Drug Screen. Data for tumor model P388 Leukemia (intraperitoneal) in CD2F1 (CDF1) mice", "settings": "endpoint: median survival time, higher = longer survival", "description": "The antitumor activity of compounds was measured in mice bearing transplantable tumors. Survival or tumor size were measured and the results are expressed as the measurement made in the treated group (T) divided by the measurement made in the vehicle treated control group (C). The tumor model used in this assay is P388 Leukemia (intraperitoneal) in CD2F1 (CDF1) mice", "note": "Values joined by “and” are separate entries in the source; they are usually repeats but may differ in a detail not shown here. Equal entries are not always repeated. The source gives many values for each of these; only a part stands here. Toxic doses and inconclusive results are not listed."}
{"smiles": "O=C1c2c(O)ccc(O)c2C(=O)c2c(NCCNCCO)ccc(NCCNCCO)c21", "values": [{"measurement": "T/C", "setting": "dose: 2.5 mg/kg/injection, schedule: Q01DX009 (ip), vehicle: water", "value": "122 % of control and 93 % of control"}, {"measurement": "T/C", "setting": "dose: 2.5 mg/kg/injection, schedule: Q01DX009 (sc), vehicle: acid diluted with saline", "value": "92 % of control"}, {"measurement": "T/C", "setting": "dose: 2.59 mg/kg/injection, schedule: Q04DX002 (ip), vehicle: water", "value": "191 % of control"}, {"measurement": "T/C", "setting": "dose: 2.7 mg/kg/injection, schedule: Q04DX003 (ip), vehicle: saline", "value": "283 % of control and 412 % of control"}, {"measurement": "T/C", "setting": "dose: 2.7 mg/kg/injection, schedule: Q04DX003 (ip), vehicle: water", "value": "272 % of control and 330 % of control"}, {"measurement": "T/C", "setting": "dose: 3.0 mg/kg/injection, schedule: Q01DX001 (ip), vehicle: saline", "value": "266 % of control"}, {"measurement": "T/C", "setting": "dose: 3.0 mg/kg/injection, schedule: Q01DX001 (iv), vehicle: saline", "value": "158 % of control"}, {"measurement": "T/C", "setting": "dose: 3.0 mg/kg/injection, schedule: Q04DX002 (ip), vehicle: distilled water + Tween-80", "value": "277 % of control"}, {"measurement": "T/C", "setting": "dose: 3.0 mg/kg/injection, schedule: Q04DX002 (ip), vehicle: saline", "value": "254 % of control"}, {"measurement": "T/C", "setting": "dose: 3.0 mg/kg/injection, schedule: Q04DX003 (ip), vehicle: saline", "value": "362 % of control [middle of 4 runs]"}, {"measurement": "T/C", "setting": "dose: 3.0 mg/kg/injection, schedule: Q04DX003 (ip), vehicle: water", "value": "150 % of control and 203 % of control"}, {"measurement": "T/C", "setting": "dose: 3.0 mg/kg/injection, schedule: Q04DX003 (iv), vehicle: saline", "value": "187 % of control"}, {"measurement": "T/C", "setting": "dose: 3.13 mg/kg/injection, schedule: Q01DX009 (ip), vehicle: water", "value": "90 % of control"}, {"measurement": "T/C", "setting": "dose: 3.2 mg/kg/injection, schedule: Q01DX009 (ip), vehicle: acid diluted with saline", "value": "97 % of control"}, {"measurement": "T/C", "setting": "dose: 3.24 mg/kg/injection, schedule: Q01DX001 (ip), vehicle: saline", "value": "560 % of control"}, {"measurement": "T/C", "setting": "dose: 3.24 mg/kg/injection, schedule: Q01DX001 (iv), vehicle: saline", "value": "224 % of control"}, {"measurement": "T/C", "setting": "dose: 3.6 mg/kg/injection, schedule: Q01DX005 (ip), vehicle: saline", "value": "96 % of control"}, {"measurement": "T/C", "setting": "dose: 3.6 mg/kg/injection, schedule: Q04DX002 (ip), vehicle: water", "value": "215 % of control and 409 % of control"}, {"measurement": "T/C", "setting": "dose: 3.6 mg/kg/injection, schedule: Q04DX003 (ip), vehicle: saline", "value": "250 % of control and 289 % of control"}, {"measurement": "T/C", "setting": "dose: 3.6 mg/kg/injection, schedule: Q04DX003 (iv), vehicle: saline", "value": "97 % of control"}, {"measurement": "T/C", "setting": "dose: 4.0 mg/kg/injection, schedule: Q01DX005 (ip), vehicle: saline", "value": "116 % of control"}, {"measurement": "T/C", "setting": "dose: 4.0 mg/kg/injection, schedule: Q01DX009 (ip), vehicle: water", "value": "96 % of control [middle of 4 runs]"}, {"measurement": "T/C", "setting": "dose: 4.0 mg/kg/injection, schedule: Q04DX002 (ip), vehicle: water", "value": "297 % of control and 390 % of control"}, {"measurement": "T/C", "setting": "dose: 4.0 mg/kg/injection, schedule: Q04DX003 (ip), vehicle: saline", "value": "247 % of control and 266 % of control and 424 % of control"}, {"measurement": "T/C", "setting": "dose: 4.0 mg/kg/injection, schedule: Q04DX003 (ip), vehicle: water", "value": "194 % of control and 330 % of control"}, {"measurement": "T/C", "setting": "dose: 4.32 mg/kg/injection, schedule: Q04DX002 (ip), vehicle: water", "value": "217 % of control"}, {"measurement": "T/C", "setting": "dose: 4.4 mg/kg/injection, schedule: Q04DX003 (ip), vehicle: acid diluted with saline", "value": "450 % of control"}, {"measurement": "T/C", "setting": "dose: 4.5 mg/kg/injection, schedule: Q01DX001 (ip), vehicle: acid diluted with saline", "value": "571 % of control"}, {"measurement": "T/C", "setting": "dose: 4.5 mg/kg/injection, schedule: Q04DX003 (ip), vehicle: saline", "value": "275 % of control"}, {"measurement": "T/C", "setting": "dose: 5.0 mg/kg/injection, schedule: Q01DX005 (ip), vehicle: water", "value": "111 % of control"}, {"measurement": "T/C", "setting": "dose: 5.0 mg/kg/injection, schedule: Q04DX003 (ip), vehicle: saline", "value": "432 % of control"}, {"measurement": "T/C", "setting": "dose: 5.4 mg/kg/injection, schedule: Q01DX001 (ip), vehicle: saline", "value": "560 % of control"}, {"measurement": "T/C", "setting": "dose: 5.4 mg/kg/injection, schedule: Q01DX001 (iv), vehicle: saline", "value": "203 % of control"}, {"measurement": "T/C", "setting": "dose: 6.0 mg/kg/injection, schedule: Q01DX001 (ip), vehicle: saline", "value": "401 % of control"}, {"measurement": "T/C", "setting": "dose: 6.0 mg/kg/injection, schedule: Q01DX001 (iv), vehicle: saline", "value": "178 % of control"}, {"measurement": "T/C", "setting": "dose: 6.0 mg/kg/injection, schedule: Q04DX002 (ip), vehicle: distilled water + Tween-80", "value": "104 % of control"}, {"measurement": "T/C", "setting": "dose: 6.0 mg/kg/injection, schedule: Q04DX003 (ip), vehicle: saline", "value": "231 % of control and 382 % of control"}, {"measurement": "T/C", "setting": "dose: 6.0 mg/kg/injection, schedule: Q04DX003 (iv), vehicle: saline", "value": "212 % of control and 90 % of control"}, {"measurement": "T/C", "setting": "dose: 6.7 mg/kg/injection, schedule: Q01DX001 (ip), vehicle: acid diluted with saline", "value": "514 % of control"}, {"measurement": "T/C", "setting": "dose: 6.7 mg/kg/injection, schedule: Q04DX003 (ip), vehicle: acid diluted with saline", "value": "450 % of control"}, {"measurement": "T/C", "setting": "dose: 7.2 mg/kg/injection, schedule: Q04DX002 (ip), vehicle: water", "value": "237 % of control"}, {"measurement": "T/C", "setting": "dose: 8.0 mg/kg/injection, schedule: Q04DX003 (ip), vehicle: saline", "value": "180 % of control and 229 % of control"}, {"measurement": "T/C", "setting": "dose: 9.0 mg/kg/injection, schedule: Q01DX001 (ip), vehicle: saline", "value": "439 % of control"}, {"measurement": "T/C", "setting": "dose: 9.0 mg/kg/injection, schedule: Q01DX001 (iv), vehicle: saline", "value": "105 % of control"}, {"measurement": "T/C", "setting": "dose: 10.0 mg/kg/injection, schedule: Q01DX001 (ip), vehicle: other", "value": "440 % of control"}, {"measurement": "T/C", "setting": "dose: 10.0 mg/kg/injection, schedule: Q04DX002 (ip), vehicle: water", "value": "92 % of control"}, {"measurement": "T/C", "setting": "dose: 10.0 mg/kg/injection, schedule: Q04DX003 (ip), vehicle: saline", "value": "93 % of control"}, {"measurement": "T/C", "setting": "dose: 12.0 mg/kg/injection, schedule: Q01DX001 (iv), vehicle: saline", "value": "225 % of control"}, {"measurement": "T/C", "setting": "dose: 12.0 mg/kg/injection, schedule: Q04DX002 (ip), vehicle: saline", "value": "108 % of control"}, {"measurement": "T/C", "setting": "dose: 12.0 mg/kg/injection, schedule: Q04DX003 (ip), vehicle: saline", "value": "106 % of control and 117 % of control"}, {"measurement": "T/C", "setting": "dose: 24.0 mg/kg/injection, schedule: Q01DX001 (ip), vehicle: saline", "value": "223 % of control"}, {"measurement": "T/C", "setting": "dose: 32.0 mg/kg/injection, schedule: Q01DX001 (iv), vehicle: acid diluted with saline", "value": "90 % of control"}, {"measurement": "T/C", "setting": "dose: 32.0 mg/kg/injection, schedule: Q04DX003 (ip), vehicle: saline", "value": "96 % of control and 107 % of control"}, {"measurement": "T/C", "setting": "dose: 64.0 mg/kg/injection, schedule: Q04DX003 (ip), vehicle: saline", "value": "92 % of control and 90 % of control and 91 % of control"}, {"measurement": "T/C", "setting": "dose: 7.0 micrograms/kg/injection, schedule: Q04DX003 (ip), vehicle: saline", "value": "99 % of control"}, {"measurement": "T/C", "setting": "dose: 15.0 micrograms/kg/injection, schedule: Q04DX003 (ip), vehicle: saline", "value": "94 % of control"}, {"measurement": "T/C", "setting": "dose: 31.0 micrograms/kg/injection, schedule: Q04DX003 (ip), vehicle: saline", "value": "92 % of control"}, {"measurement": "T/C", "setting": "dose: 63.0 micrograms/kg/injection, schedule: Q04DX003 (ip), vehicle: saline", "value": "102 % of control"}, {"measurement": "T/C", "setting": "dose: 125.0 micrograms/kg/injection, schedule: Q04DX003 (ip), vehicle: saline", "value": "122 % of control"}, {"measurement": "T/C", "setting": "dose: 1000.0 micrograms/kg/injection, schedule: Q04DX003 (ip), vehicle: saline", "value": "163 % of control"}, {"measurement": "T/C", "setting": "dose: 2000.0 micrograms/kg/injection, schedule: Q04DX003 (ip), vehicle: saline", "value": "186 % of control"}, {"measurement": "T/C", "setting": "dose: 4000.0 micrograms/kg/injection, schedule: Q04DX003 (ip), vehicle: saline", "value": "220 % of control"}, {"measurement": "T/C", "setting": "dose: 8000.0 micrograms/kg/injection, schedule: Q04DX003 (ip), vehicle: saline", "value": "172 % of control"}]}
